# From PubChem BioAssay AID1159614 (National Center for Advancing Translational Sciences (NCATS), 2016)
# Screen size: about 45,000 compounds; about 65 (0.1%) were called active. Calls follow the shape of the dose curve; as a rule, active = well fitted activation curve with a large enough effect; inconclusive = small, poorly fitted or top-dose-only effect; inactive = no such curve, though single readings can be large or run the other way. This is one part of the list.
# Biological target: Galactocerebrosidase (Homo sapiens) (UniProt P54803)
# Test: A Novel Cell-Based Assay to Identify Small Molecules for B -Galactocerebrosidase; also: 0% is about no effect; nearly all actives have a fitted effect of over 65% in size
# Conditions: 145M-Twi-hGALC-G270D cells (Twitcher mouse brain line with human GALC G270D), HMU-beta-Gal fluorescence, 48 h; series mostly up to 57.5 µM; activation: at the top concentration
# Method in brief: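 Fluorescence readout: HMU-β-gal cleavage by mutant GALC (0.1 mM final, citrate/phosphate pH 5.2 with 1 mg/mL taurocholate), stopped with carbonate/bicarbonate plus Triton X-100. Cells: murine Twitcher 145M-Twi expressing human G270D GALC; qHTS for activators.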
# Sequence of UniProt P54803 (P54803 whole entry, looked up): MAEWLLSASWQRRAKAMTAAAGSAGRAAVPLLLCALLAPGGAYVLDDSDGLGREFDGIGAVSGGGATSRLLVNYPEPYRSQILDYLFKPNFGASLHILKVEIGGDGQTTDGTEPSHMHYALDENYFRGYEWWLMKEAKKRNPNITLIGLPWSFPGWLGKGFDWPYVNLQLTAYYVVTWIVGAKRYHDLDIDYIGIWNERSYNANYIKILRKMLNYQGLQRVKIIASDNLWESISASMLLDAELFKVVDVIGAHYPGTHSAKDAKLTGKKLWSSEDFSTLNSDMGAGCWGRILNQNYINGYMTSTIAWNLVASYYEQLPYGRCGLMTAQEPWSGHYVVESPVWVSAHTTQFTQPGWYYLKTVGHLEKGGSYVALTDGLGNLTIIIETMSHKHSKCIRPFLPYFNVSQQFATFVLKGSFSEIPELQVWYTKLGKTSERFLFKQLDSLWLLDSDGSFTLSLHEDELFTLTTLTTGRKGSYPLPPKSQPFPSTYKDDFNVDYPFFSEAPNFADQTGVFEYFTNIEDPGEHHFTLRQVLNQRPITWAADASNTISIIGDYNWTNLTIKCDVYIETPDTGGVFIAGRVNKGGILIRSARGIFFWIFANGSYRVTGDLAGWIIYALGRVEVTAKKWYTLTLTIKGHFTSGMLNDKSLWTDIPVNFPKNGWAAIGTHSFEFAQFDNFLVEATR
row,SMILES,activation
1,COc1ccc(NC(=O)CCS(=O)(=O)c2nc(-c3ccc4c(c3)OCO4)cc(C(F)(F)F)n2)cc1,inactive: -7.1%
2,Cc1c(C(=O)N2CCCC2)oc2c1-c1nn(CC(=O)NCc3ccccc3Br)cc1CC2,inactive: -6.14%
3,Cc1ccc(/C=C/c2onc(C)c2S(=O)(=O)N2CCC(C(=O)N3CCOc4ccc(C)cc43)CC2)cc1,inactive: 3.28%
4,CSc1ccc(C2CC(=O)Oc3c2c(=O)n(C)c2ccccc32)cc1 (stereo not drawn),inactive: -7.79%
5,Cc1ccc2[nH]cc(S(=O)(=O)c3ccc(C)c(C)c3)c(=O)c2c1,inactive: -3.77%
6,CCN(CC)CCNc1ccc(CO)c2sc3ccccc3c(=O)c12,inactive: -12.5%
7,CC1Cn2c(C(=O)NCCc3ccc(Cl)cc3)cc3cccc(c32)S1 (stereo not drawn),inactive: -20.7%
8,Cc1ccc(F)cc1NC(=O)CCc1c(C)nn(-c2ccc(N3CCOCC3)nn2)c1C,inactive: -8.77%
9,Cc1cc(=O)n(C(C)C(=O)N2CCCc3ccccc32)c2c1c(C)nn2-c1ccccc1 (stereo not drawn),inactive: -36.4%
10,CCOc1ccc2nc3cc(N)ccc3c(N)c2c1,inactive: 0.578%
11,COc1ccc(-c2cc(C(=O)Oc3ccc(C)cc3)c3cc(C)ccc3n2)cc1,inactive: -6.17%
12,O=C(CN1C(=O)COc2ccc(S(=O)(=O)N3CCCCCC3)cc21)Nc1cccc(Cl)c1,inactive: -5.86%
13,N[C@@H](Cc1ccc(O)cc1)C(=O)O,inactive: -7.4% [at 11.5 µM]
14,Cc1ccc(-c2nnc(Nc3ccc(OC(F)(F)Cl)cc3)c3ccccc23)cc1S(=O)(=O)NC(C)(C)CO,inactive: -13.5%
15,CC(=O)N1CCc2c(sc3nc(SCC(C)C)n(-c4ccc(C)c(Cl)c4)c(=O)c23)C1,inactive: -40.2%
16,Nc1ccc(NC(=O)c2cccc(C(=O)Nc3ccc(N)cc3Cl)c2)c(Cl)c1,inactive: 8.12%
17,O=C(COc1ccccc1)N(Cc1cccnc1)c1nc2c(F)cccc2s1,inactive: -8.38%
18,CCCCn1c(=N)c(S(=O)(=O)c2ccc(C)cc2)cc2c(=O)n3cc(C)ccc3nc21,inactive: -8.27%
19,O=C(COc1ccc(Cl)cc1)N1CCN(Cc2ccc3c(c2)OCO3)CC1,inactive: -6.03%
20,CCc1nn2c(=O)cc(COC(=O)c3ccc(NC(=O)CCc4ccccc4)cc3)nc2s1,inactive: -13.7%

row,SMILES,activation
1,O=C(Nc1ccc(-c2nc3cc(NC(=O)c4ccc(F)cc4)ccc3o2)cc1)c1ccc(F)cc1,inactive: -16%
2,COc1cc(-c2nc(SCC(=O)Nc3ccc(C)cc3)c(-c3ccc(F)cc3)[nH]2)cc(OC)c1OC,inactive: -8.88%
3,COc1cc(/C=C(\C#N)c2nc3ccccc3[nH]2)ccc1OCc1ccc(F)cc1,inactive: -21.5%
4,CCCN(CCC)CCCNC(=O)c1cnn(-c2ccc(F)cc2)c1-n1cccc1,inactive: -12.9%
5,CC(NC(=O)C1CCN(S(=O)(=O)c2ccccc2)CC1)c1ccccc1 (stereo not drawn),inactive: -11.9%
6,Cc1nn(C(C)C(=O)Nc2ccc(C(C)C)cc2)c(=O)c2c1sc1ccccc12 (stereo not drawn),inactive: -10.5%
7,CCc1nc(SC)ncc1C(=O)N1CCN(c2cc(Cl)ccc2C)CC1,inactive: 0.881%
8,Cc1ccccc1CNC(=O)C1=Cc2ccccc2OC1,inactive: -6.52%
9,COc1ccccc1N1CCN(C(=O)c2cnn(-c3cccc(Cl)c3)c2C2CCN(C(=O)OC(C)(C)C)CC2)CC1,inactive: -12.2%
10,C#CC(C)(CC)NC(=O)Cn1nnc(-c2ccc(OCc3ccccc3C)cc2)n1 (stereo not drawn),inactive: -1.93%
11,Cc1cccc(-c2nn3c(=O)cc(CN4CCN(C(=O)c5ccccc5Br)CC4)nc3s2)c1,inactive: 0.27%
12,COc1ccccc1CNc1nc(-c2ccco2)nn1C(=O)c1cc(OC)c(OC)c(OC)c1,inactive: -16.3%
13,CN(Cc1cnc2nc(N)nc(N)c2n1)c1ccc(C(=O)N[C@@H](CCC(=O)O)C(=O)O)cc1,inactive: -12.3%
14,CCc1ccccc1NC(=O)c1cc(S(=O)(=O)N2CCc3ccccc32)ccc1F,inactive: -9.25%
15,CCCn1c2ccccc2c2cnn(CC(=O)NCC3CCN(Cc4ccc(F)cc4)CC3)c(=O)c21,inactive: -9.48%
16,Cc1ccc2c(c1)c1c(c(=O)n(-c3cccc(Cl)c3)c(=O)n1CC(=O)NCCC1=CCCCC1)n2C,inactive: 2.19%
17,COc1ccccc1CNC(=O)CCC1N=C2c3ccccc3N=C(SCC(=O)Nc3ccc(F)cc3)N2C1=O (stereo not drawn),inactive: 2.66%
18,CCn1c(SCc2ccccc2C)nc(=O)c2c(C(=O)OC)cc(C3CC3)nc21,inactive: -49.8%
19,COc1ccc(CNc2nc(-c3ccccc3)nn2S(=O)(=O)c2ccccc2)cc1,inactive: -6.19%
20,CN(CC(=O)NCc1ccc(Cl)cc1)S(=O)(=O)c1ccc2[nH]c3c(c2c1)CCCC3,inactive: -15.9%

row,SMILES,activation
1,COc1ccc(NC(=O)CCS(=O)(=O)c2nc(-c3cccs3)cc(C(F)(F)F)n2)cc1,inactive: -10.1%
2,COc1cccc(C2c3c(oc4cc(C)cc(C)c4c3=O)C(=O)N2CCc2ccc(OC)c(OC)c2)c1 (stereo not drawn),inactive: -15.8%
3,CCc1ccc(NS(=O)(=O)c2ccc3oc(=O)c4ncn(CC)c4c3c2)cc1,inactive: -6.56%
4,CCOC(=O)C1CCC(CN(Cc2ccc(OC)cc2)S(=O)(=O)c2ccc(F)c(C(=O)Nc3ccc(C)c(C)c3)c2)CC1 (stereo not drawn),inactive: -0.582%
5,O=c1cc(CSc2ncn[nH]2)[nH]c2ccc(F)cc12,inactive: -13.4%
6,COc1ccc(-n2c(Cc3ccccc3)nnc2SCc2nc(-c3cccs3)no2)cc1,inactive: -3.59%
7,O=C(Nc1nnc(-c2cc(Cl)ccc2Cl)o1)c1ccc2c(c1)OCCO2,inactive: -8.15%
8,CCn1c(CN2CCOCC2)nc2cc(NC(=O)c3ccccc3[N+](=O)[O-])ccc21,inactive: -10.4%
9,CCN(C(=O)Cn1c(=O)n(CCCS(=O)(=O)C2CCCCC2)c(=O)c2ccccc21)c1cccc(C)c1,inactive: -8.1%
10,Cc1ccc(NC(=O)N2CCc3cc(S(=O)(=O)N4CCC(C)CC4)ccc32)cc1,inactive: -3.95%
11,COc1cccc(-n2cc(C(=O)Nc3cccc(C(F)(F)F)c3)c3ccccc3c2=O)c1,inactive: -9.38%
12,CC(C)Oc1ccc(CNC(=O)c2ccc(CS(=O)c3cccc(Cl)c3)o2)cc1 (stereo not drawn),inactive: 2.3%
13,COc1ccccc1N1CCN(C(=O)Cn2ncc3ccsc3c2=O)CC1,inactive: -9.71%
14,CN(C)C1(CNC(=O)COc2ccc([N+](=O)[O-])cc2)CCCCC1,inactive: -12.9%
15,CCN(CC)S(=O)(=O)c1ccc2c(c1)N(CC(=O)N1CCN(c3cccc(Cl)c3)CC1)C(=O)CO2,inactive: -4.56%
16,CCC1CN(C(=O)N2CCC(C(=O)NCCc3cc(OC)ccc3OC)CC2)c2ccccc2O1 (stereo not drawn),inactive: -10.9%
17,Cc1cc(Cl)ccc1NC(=O)Cn1nc(C)c2c(C)n(-c3ccccc3)nc2c1=O,inactive: -22.8%
18,Cc1ccc(Cl)cc1Nc1nn2c(=O)c3ccc(C(=O)Nc4ccc(F)cc4)cc3nc2s1,inactive: -2.6%
